The campaign covered roughly 310,000 compounds. About 14,000 (4.5%) showed an effect of 50% or more. Effects have a minus sign here. Some of the results follow.
What follows are molecules tested against human ether-à-go-go-related gene (hERG) potassium channel (human, UniProt Q12809) (assay: primary screen, population patch clamp on CHO cells stably expressing hERG).
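Note: peak tail current of the secondary pulse compared with the same well before compound.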

Sequence of human ether-à-go-go-related gene (hERG) potassium channel (Q12809 whole entry, looked up): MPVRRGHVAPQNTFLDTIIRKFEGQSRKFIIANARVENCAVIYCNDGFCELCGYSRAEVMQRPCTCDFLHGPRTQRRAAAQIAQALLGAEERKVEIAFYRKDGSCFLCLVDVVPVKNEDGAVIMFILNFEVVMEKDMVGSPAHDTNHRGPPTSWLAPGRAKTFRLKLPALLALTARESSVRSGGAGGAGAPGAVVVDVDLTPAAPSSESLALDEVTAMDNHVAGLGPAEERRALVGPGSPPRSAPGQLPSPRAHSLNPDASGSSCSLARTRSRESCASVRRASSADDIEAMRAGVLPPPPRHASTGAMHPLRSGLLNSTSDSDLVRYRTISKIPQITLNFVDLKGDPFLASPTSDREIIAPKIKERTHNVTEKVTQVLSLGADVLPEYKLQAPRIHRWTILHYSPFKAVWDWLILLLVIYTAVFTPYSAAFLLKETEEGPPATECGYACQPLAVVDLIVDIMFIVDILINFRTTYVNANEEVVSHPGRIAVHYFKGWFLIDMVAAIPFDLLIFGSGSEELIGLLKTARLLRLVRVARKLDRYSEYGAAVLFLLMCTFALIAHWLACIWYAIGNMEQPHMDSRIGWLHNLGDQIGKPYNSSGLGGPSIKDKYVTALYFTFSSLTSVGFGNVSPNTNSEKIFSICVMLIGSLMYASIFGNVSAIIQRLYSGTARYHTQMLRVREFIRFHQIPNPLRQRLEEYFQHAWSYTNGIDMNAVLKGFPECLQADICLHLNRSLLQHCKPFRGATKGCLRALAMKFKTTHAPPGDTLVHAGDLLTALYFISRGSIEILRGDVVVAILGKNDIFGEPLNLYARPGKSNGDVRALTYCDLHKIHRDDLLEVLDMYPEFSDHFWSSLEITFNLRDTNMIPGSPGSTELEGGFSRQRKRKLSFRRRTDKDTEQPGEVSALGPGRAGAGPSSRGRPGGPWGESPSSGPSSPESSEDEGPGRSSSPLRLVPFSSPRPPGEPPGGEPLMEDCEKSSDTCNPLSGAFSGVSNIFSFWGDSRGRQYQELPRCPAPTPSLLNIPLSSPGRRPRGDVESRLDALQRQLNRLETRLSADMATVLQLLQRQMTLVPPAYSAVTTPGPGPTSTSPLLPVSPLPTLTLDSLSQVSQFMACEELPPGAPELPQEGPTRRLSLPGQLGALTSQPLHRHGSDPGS

| Compound | hERG current change (%, negative = inhibition) at 10uM |
| --- | --- |
| Cc1ccc(-c2nc(CC(=O)Nc3cccc(S(=O)(=O)NC4=NCCC4)c3)cs2)cc1 | 6.43% |
| CCN(CC)c1ccc(/C=C/c2cc(-c3ccccc3)c3ccccc3n2)cc1 | 5.29% |
| Cc1cc(C)nc(NC(=O)c2ccc(C)o2)n1 | 18.3% |
| COc1cc(C(=O)N2CCCCCCC2)ccc1OC1CCN(C(C)=O)CC1 | -49% |
| O=C1NC2NC(=O)N([N+](=O)[O-])C2N1 (stereo not drawn) | 14.6% |
| Cc1cc(C#N)c2ccccc2n1 | 11.2% |
| CCCCOC(=O)CSc1nc(N)c(C#N)c(-c2ccc(OCC)cc2)c1C#N | 15.7% |
| CCOC(=O)Cn1nnc(-c2ccc(OCC(C)C)cc2)n1 | 10.2% |
| CCOc1cc(CNc2ccc3c(c2)OCCO3)cc(Br)c1OCC(N)=O | -17.6% |
| COc1cc(CCC(=O)N2CCN(c3ccc(N4CCOCC4)nn3)CC2)cc(OC)c1OC | -9.65% |
| Cc1ccc(NC(=O)NCCc2ccc(S(N)(=O)=O)cc2)cc1 | 17.5% |
| N#CC1=C2SCN(Cc3ccco3)CN2C(=O)CC1c1ccc(Cl)cc1 (stereo not drawn) | 11.7% |
| CCc1nnc(NC(=O)c2cc(-c3ccccc3)nn2-c2ccccc2)s1 | 10.3% |
| O=C(O)c1ccc2c(c1Sc1ccccc1)C(=O)c1ccccc1C2=O | -4.82% |
| CCc1ccccc1NC(=O)N1C[C@H]2C[C@@H](C1)c1cccc(=O)n1C2 | 12.7% |
| CCc1ccc(NC(=O)CCn2nc(C)c(S(=O)(=O)N3CCCCC3)c2C)cc1 | -22.7% |
| O=C(Nc1nnc(C2=COCCO2)o1)c1ccc(F)cc1 | 14.2% |
| CCCN1CCN(CCNC(=O)Nc2cc(C)ccc2C)CC1 | -39.8% |
| Nc1nonc1-n1nnc(C(=O)N/N=C/c2ccc(OCc3ccccc3)cc2)c1COc1ccc(F)cc1 | -5.88% |

| Compound | hERG current change (%, negative = inhibition) at 10uM |
| --- | --- |
| CN(CC(=O)Nc1cccc(F)c1)CC(=O)Nc1cccc([N+](=O)[O-])c1 | -39.7% |
| COc1ccc(C)c2sc(N(CCCN(C)C)C(=O)c3ccc(S(=O)(=O)N(C)C)cc3)nc12.Cl | -61.5% |
| O=C(NCCc1ccccc1Cl)c1ccc2nc3ccccc3c(=O)n2c1 | -1.14% |
| COc1cc2c(cc1OC)CN(C(=O)c1sccc1C)CC2 | 1.41% |
| O=C(CSc1nc(-c2ccccc2)nc2c1CCCC2)N1CCOCC1 | -1.06% |
| Cc1ccc(NC(=O)CN(C)C(=O)c2ccc(OCc3cn4ccccc4n3)cc2)cc1 | 0.0233% |
| COc1cc2c(cc1OC)C(CSc1ccccc1C(=O)O)=NC(C)(C)C2 | 17.3% |
| COc1ccc(C2CC(C(F)(F)F)n3nc(C(=O)NCc4c(C)nn(C)c4C)c(Cl)c3N2)cc1 (stereo not drawn) | -7.16% |
| COc1ccc(CC2C(=O)OC(C)(C)OC2=O)cc1 | 1.73% |
| C=C1c2ccccc2NC(=O)N1c1ccc(OC)cc1 | 12.8% |
| CC(=O)N1CCc2cc3nc(C)cc(C)c3cc21 | -24% |
| CCS(=O)(=O)c1ccc(O)c(NC(=O)/C=C/c2ccc(Cl)cc2)c1 | -28.5% |
| CCOC(=O)Nc1ccc(S(=O)(=O)NCc2ccccc2)cc1 | 8.38% |
| Cc1ccc(NC(=O)c2c([N+](=O)[O-])c(C(C)(C)C)nn2C)c(C)c1 | 20.7% |
| O=C(O)c1ccc(C2SCC(=O)N2Cc2ccccc2)cc1 (stereo not drawn) | -0.7% |
| COc1ccc(C(=O)NNC(=S)NC(=O)c2ccc(F)cc2)cc1Br | 24.8% |
| CC(=O)NS(=O)(=O)c1ccc(NC(=O)C2C3C=CC(C3)C2C(=O)O)cc1 (stereo not drawn) | 22.9% |
| Cc1nc(NC(CC(C)C)C(=O)O)c2nc(C)oc2n1 (stereo not drawn) | -3.03% |
| O=C(/C=C/c1ccccc1)c1c[nH]c2ccccc12 | -2.65% |

| Compound | hERG current change (%, negative = inhibition) at 10uM |
| --- | --- |
| O=C(O)C(c1ccccc1)c1ccccc1 | 14.5% |
| COc1ccc(C(CNc2nc(-c3cccnc3)nc3ccccc23)N(C)C)cc1 (stereo not drawn) | -59.2% |
| O=C1OC(Cc2ccccn2)C(O)=C1C1=NCCCCN1 (stereo not drawn) | -8.5% |
| CCc1nnc(NC(=O)CCC(=O)N2CCN(Cc3ccc(OC)c(F)c3)CC2)s1 | 17.8% |
| COc1cc(-c2nc(CCNC(=O)c3ccco3)cs2)cc(OC)c1OC | -24.7% |
| O=C(OCc1cccc(F)c1)c1ccc2c(=O)n3c(nc2c1)CCC3 | -29.5% |
| Cc1ccc(C(C#N)c2ccc(Cl)nn2)cc1 (stereo not drawn) | 2.24% |
| C/C(=N\NC(=S)NCc1ccccc1)c1ccc2c(c1)OCCO2 | 7.77% |
| CCOC(=O)C1(Cc2cccc(OC)c2)CCN(Cc2cccnc2)CC1 | -16.4% |
| Br.CCCCCCCCCn1ccc(=N)cc1 | -66% |
| Cc1nc2c(c(=O)n1CCC(C)C)c1nc3ccccc3nc1n2Cc1ccc2c(c1)OCO2 | -5.25% |
| COc1ccc(C(=O)Nn2c(SCc3ccc([N+](=O)[O-])cc3)nc3ccccc3c2=O)cc1 | -2.53% |
| Cc1cccc(C)c1NC(=O)CSc1nnc(NC(=O)C2CC2)s1 | 24.7% |
| O=C(N/N=C/c1ccncc1)c1cc2ccccc2cc1O | -10% |
| CCCCNC(=O)N1CCc2[nH]c3ccccc3c2C1 | -6.46% |
| CCN(CC)CCOc1c(Br)ccc2c1sc1nc3n(c(=O)c12)CCC3 | -12.4% |
| c1ccc2ccccc2c1 | 20.9% |
| C=CCN1C(=O)/C(=C\c2cc(Br)c(OCc3ccccn3)c(OC)c2)SC1=S | 14.2% |
| Cc1ccc(NC(=O)c2ccc(F)cc2)nc1 | 3.9% |

Reference: publication PMC4336329 (PLoS ONE, 2015)
